Measurements as given in article PMC10726135.
Some of the results follow. At the low end of the ranking, values are background and their order means little. The protein was read in a cell extract, so binding may be indirect.

Molecular target: T1, HNF4alpha8 (COS-7 nuclear extract) (UniProt P41235-5)
T1 sequence: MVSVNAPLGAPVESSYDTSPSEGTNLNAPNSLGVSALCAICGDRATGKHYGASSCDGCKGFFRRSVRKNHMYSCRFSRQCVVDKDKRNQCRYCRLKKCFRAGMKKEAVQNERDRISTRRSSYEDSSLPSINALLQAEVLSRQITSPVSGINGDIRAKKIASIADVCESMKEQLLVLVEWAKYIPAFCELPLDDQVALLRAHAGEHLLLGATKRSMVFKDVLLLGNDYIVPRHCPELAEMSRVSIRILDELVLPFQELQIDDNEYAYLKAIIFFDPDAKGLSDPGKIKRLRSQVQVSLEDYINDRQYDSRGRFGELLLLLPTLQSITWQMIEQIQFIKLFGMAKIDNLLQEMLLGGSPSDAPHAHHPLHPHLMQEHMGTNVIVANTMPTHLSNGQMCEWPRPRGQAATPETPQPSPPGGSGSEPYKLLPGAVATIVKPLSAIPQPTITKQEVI
Test: protein-binding microarray
Conditions: COS-7 nuclear extract on double-stranded Agilent 4x180k PBM; binding buffer, salt, pH and temperature not given; high values mean tight binding; double strand, one strand shown; sequences stand for … in …GCCTAGGGAGATTAGAGTATCGGTCGA

Sequence | binding signal (log2 normalized intensity)
GAGAGGCTTATGCATGGGAGATCTTCAGTA | -0.357
GCAACAGGAAACAGCCTGTGTTCTCTCAAC | -1.27
AGCTCTTTCCATTTTTGCTCCTGCACTTTT | 2.4
GAAAGACGAAAGGGACTTTGATCTTCTTAC | 6.37
AGGAGCCAAAGTCCTTCCCAAGTCCTGCAT | 2.41
GCAGGTGGCTACATGATGTCAGTTTGACTC | 1.31
GTGGTCTTTATGACTTGGGTGCACCAATGA | 1.94
AAAATAGTTTCAACTTAACCCCAGTTTAGC | 2.42
CCCCTTGCTGAGTGGAAAAACACCTGGTTC | -0.272
TCCACAGTCAAGGCCAAAGGTTAAAAATAA | 4.8
TGATCCATTCTACCCCTGTGGTTGACCTTT | 8.51
GCCCACAATTGCATGTTCAACAGACAGCTG | -1.31
CCTGGATGCCAGGCAAGAGCTCAGAAGCCA | -1.38
GGGATCAGCAATGCTCAGCCCACCTTTTGG | -1.39
TGTGGGTAATTAATCTGATCGCCCTCCCCC | 5.29
AGAGCACAACCTTTGGCCGTGCATGCTTGG | 2.95
GAGCCCACAGTCCAGTACCATTTCCTGGTC | 0.216
TGTGGCTAACAATATGGGGTGGGGAAGAAG | -1.3
GAGAGGTCAATGTCCAGTTCCGCTGCAGTT | 4.53
TCCAAATTCCTTGGAATACATGGAATGCTC | 0.442
AGCCCAAGAAGCGTCAGTTGCCTCGCCAGA | -1.26
GGGCTCCCACCAGGGGGAGGCTCAGAGTCT | -1.34
ACATGAGCTAGTGCTAAAGGTCATATCCAA | 4.49
CACAAGCAATGGCTGGGTCTAAGGGCAAGT | 1.18

Sequence | binding signal (log2 normalized intensity)
TGCCCCAGTCCTTCAGTCCTTCCCCCGCCA | 5.33
ATTGGACTCTCTCATTCTGATATGCACTGT | 2.06
TCTGTCTTCGGGCGGCGGCCTCTGGGAAAT | -0.905
AGTAATGTGATTTAATTCTGAGTTCCAATA | 0.268
GAAGTGATCCTTATCAGTGTGAGCTACAAG | 0.348
TATTAATGAGGCAAAGGTCAGGAGTTCCAT | 3.8
CCAGTAGAGAAACAAATCTGCTTTCTACCC | -0.982
TGACTACCAGGTTCTGTACTTTGGAACCTG | 7.01
AGCCTGACCATCACCACTTCAAGCTTGGTA | -1.34
GTGTTTCTTGTTTCAGAGTAAATACGAACC | 1.46
GACCCTCTGCCCCCTACACAGAGGAGCGAC | 4.18
GGGATCCGGCCTTCCCGGGTGGACGTCCCC | 0.694
TTCCTGTAAATAATTAAGACCAAACTGCTG | -1.23
TGGCACTGAAGAATGTCTAAATCTGAAGGA | -0.983
CTAGATGGCTGTGACTACTTCCGGACATGG | 0.249
AAGTCTTAGTTTCCTTATCTGTAAAATGGA | 1.73
TGGCATGCAGCAGGGGAATGGAGACACACC | -1.21
TTCCCGGCCTGGCCACTCCGTTTGCTATGG | -1.26
GACAAAATGCCCAGGATTCCTTTTTCACTG | -1.35
AAGATTAGCTCACAGGAAAGGAGACTAAAG | -1.3
ATGAGAACTTCTTCCAATGAAAGGTTAACC | 2.08
ATCTGAATGTATGGGCTATTTATGACGGTG | 1.06
CCCGTGTCTCCCTACCTCTGCACAGCTCCA | -1.2
CAAACACAAAAAGCGGACAAACCAGTCCCA | -1.37

Sequence | binding signal (log2 normalized intensity)
CTTTGAGATTTGCATTCATGATCTTAGATA | 0.242
CAGACAGGCATGACAGAGTGTCCTGCCCCC | 5.11
AACTTCGGGAATCTGACCTTTGGGACATTC | 6.32
TCCCTAAGATTTATCCCAAATGTTTGCACT | 1.34
CATGTTAATTTAAATAACAAGGATAGCGTC | -1.21
TGCAACATTAAAACAACCCAGAGAATGCTA | -1.33
TCCCTGGGTACAACTTTATCTAAGGGTTTC | 1.13
TGAGTGTGTTTCTTGTTTCAGAGTAAATAC | 1.35
GAGATTTCAGCCGCTTTGAGGTCAATGGTA | 2.54
ATATTTGTCTTCCTATCTCCTTACTCTTTG | 0.624
AAGACCAAACTGCTGAAGATAAGACTTCCT | -1.23
GCCAGCAAGGACTTTGAAGGCCCCAATTGC | 0.264
GTTTGTCAAGCTCAATGCAACCAGTTGGTG | 0.473
ATCAAAGGTCACTTTACAGATAAAGAAACC | 2.91
ACAGAGTAAAGCCACTGCCTAGATAAAAGG | -1.35
CTTTGCCCAACCCTCTCCCACTCCCCTCCT | 4.85
GGAATCTGAACTTTTGGCTCCCTGGGGTTA | 2.05
CCTCCCGGAGGACCCGACCGGAGAGGGCGA | -1.08
AAGGGTTCAGGGCAGAAGAGGTTATCACAG | 0.0363
ATGATATGGTCAGTGTTGATAAGAAAGCTG | 0.0521
AAGGCTGCTGCCTGAAAGGCCAAGCCAGTT | -1.28
CCCTTCCTGCTTCCAGGCTTGTACCTTGAC | 3.23
CCCTAGTGACTCTAGGAACCTTTCTCCATA | -1.32
ATAAGGAGGGTAACAATGCTGATGGGGACC | -1.32
